This assay has as its system NCI-H322M lung. The assay is described as follows: NCI anticancer screen, dose series, 48 h.

Structures are written as SMILES.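 Assay format: 96-well plates, 48-hour exposure. At the GI50, growth is halved. TGI is the concentration that stops growth completely.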

Regarding `Cc1cccc2c3c(sc12)C(c1ccc(F)cc1)C(C#N)=C(/N=C/c1ccc(Cl)cc1)O3` (centres undefined), the GI50 is 0.782 µM and the TGI amounted to 35.6 µM.

Consider `O=C(NNc1nc2cc(F)cc(F)c2n2cccc12)c1ccncn1`, for which the GI50 was greater than 30 µM and the TGI is greater than 30 µM.

Source of the values: PubChem BioAssay (NCI).
